Measured values taken from article PMC7078472.

Molecular target: Homo sapiens ATP synthase subunit c (HsATPc) prey for MYTH (NubG-HA) (UniProt P05496)
Test: MYTH (membrane yeast two-hybrid) quantitative β-Gal activity assay
Settings: yeast strain NMY51; n = 3; 6 colonies for each independent experiment; parent: est. 140; read off a plot

Homo sapiens MCU (HsMCU) bait for MYTH (Cub-LexA-VP16) (from UniProt Q8NE86) TMH1 replaced with WALP ([…])
response: 25 units
